# The supplement of paper PMC11417369
# ± gives the standard deviation of the averaged measurements. The list shows a part of the results.
# Test system: PfAP2-EXP AP2 domain (GST-tagged)
# Assay: gcPBM binding intensity (ln(normalized median fluorescence intensity)); higher = stronger DNA binding
# In short: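 Each value is the highest Masliner-normalised natural-log median intensity across replicate spots of either orientation of a probe. The probes were primer-extended double-stranded 36-bp intergenic genomic sequences on an Agilent 4 × 180k array, alongside negative controls, exposed for 1 h to GST-tagged P. falciparum DNA-binding domains expressed in E. coli. Bound protein was picked up with Alexa488 anti-GST antibody and scanned at 488 nm.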
row,Sequence,gcPBM binding intensity (ln)
1,TCATATATGGGTAGTATACACACTGTATATTTAGGA [CACACA_site2844],8.59 ± 0.46
2,TTTGCCCAAAAAGGTACACACCACAATGTACATAAA [CACACA_site4599],8.78 ± 0.42
3,TTTTATTTAAATACACGTACATAATGTATATATATA [XGTACX_site7160],9.095 ± 0.035
4,ACATGATGTCATAAATGTACGCACACATACATAAAC [XGTACX_site1198],8.69 ± 0.31
5,TCTTTTTAAATATATACACACCGTGTCTACAGATAC [CACACA_site5784],8.47 ± 0.4
6,GAACATTTCACACAAAAAAAAAAAAATATATATATA [TGCATGCA_negctrl_site518],9.81 ± 0.33
7,TACTAATATAATAAAAGTACTTAAATAAATATATGT [XGTACX_site2220],8.61 ± 0.42
8,TCTAACATATTTTTAATACACACTTAAAAAAGTACT [CACACA_site1366],8.33 ± 0.34
9,ATTTACATTATATTGAATATGCCATATTATATTATT [CACACA_negctrl_site811],8.6 ± 0.41
10,AATGCTTTTCATCAAGTGCAATATGTTAATACAAAC [GTGCAC_site9619],8.59 ± 0.028
11,AAAAAAAAAAATGGTTGTACTTTTTTTATTTGGTGC [XGTACX_site4498],8.49 ± 0.34
12,GTAGACTGAAACCACACACACATATATAAATATATT [CACACA_site6433],8.59 ± 0.38
13,TCTATATCAACCAGTTGTACTGAATTTACTATATTT [XGTACX_site4205],8.42 ± 0.34
14,TATAAAAGTAGACACACACACATATAAATATAAATA [CACACA_site6567],8.84 ± 0.37
15,ATATTATATTGGATGTTGCACTTAACAAAAGGATAT [GTGCAC_site9478],8.81 ± 0.22
16,ATAGACTTTTGTTTTGTTTTATTTTATTGTATTGTA [CACACA_negctrl_site618],8.63 ± 0.54
17,TGTATGTATAATTGAGTGCACAGAAAAAAAAAAGAA,9.6 ± 0.17
18,TAATTTTCATATTTCTGTACATATATTATAAATATA [XGTACX_site3480],8.29 ± 0.028
19,AGAAAAAAAAAAAAAAAACACACGGTACATTCAAAG [CACACA_site2],8.61 ± 0.49
20,TAATATATATATATTACACACACGTATTATTAAATA [CACACA_site432],8.69 ± 0.45
21,AAAAAATATTTATGTTCACACATTTTATATATGATA [CACACA_site4821],8.41 ± 0.42
22,TTTTTTTTTTGATGAGCACACATGTTTTTTCTTAGA [CACACA_site3171],8.46 ± 0.43
23,AAATATTTTTAAAGAAGTACTTTTTAAAAATAATCT [XGTACX_site4897],8.54 ± 0.49

row,Sequence,gcPBM binding intensity (ln)
1,AATAAATATATATACACACCCATATATATATATATA [CACACA_site2595],10.1 ± 0.42
2,TCTTTGTTTTTTTTTTTTAAACAAAATCATCAAAGG [XGTACX_negctrl_site192],8.16 ± 0.53
3,AAGATACACCTTTTTAGTACTTACATTTTTTTTATT [XGTACX_site1373],8.78 ± 0.4
4,GCGTATACTTGTAACGGTACACAGGAAATTATAGAA [XGTACX_site507],8.82 ± 0.4
5,TATATATATGGACACACACACACCAAAGCGTAGCGC [CACACA_site4209],8.88 ± 0.68
6,TACACTTTTTTTTGTACACACTAAAAAGATTAACAA [CACACA_site6037],8.47 ± 0.26
7,TAATGTTGTTTCTGAGGTACACAATTTTTTTTATTT [XGTACX_site8035],8.44 ± 0.38
8,TTAATGAAATATTATACACACAAAAAAATAATTTTA [CACACA_site4231],8.42 ± 0.42
9,ACCATACAGAATAATGCATGTTCCTTTTTATGAATA [TGCATGCA_site995],8.76 ± 0.38
10,AAAAAAATAAAGGATATACACACTAATTATATATAT [CACACA_site2812],8.74 ± 0.26
11,TATACTTGTAAATGCACACATAAGATGCGACTAATG [CACACA_site2118],8.62 ± 0.29
12,CCAACATAGAGGGGCACACACATATATACCTAAAAA [CACACA_site5088],8.62 ± 0.51
13,AAAATAATTGTTTACACACCCATTTGTAATTTTACC [CACACA_site3614],8.54 ± 0.37
14,CTGTGTTTTGGTTGTACACACGCTACATTCTATATT [CACACA_site2698],9.16 ± 0.28
15,AGATTATAAAATTCTACACACATATATACCTATATA [CACACA_site5848],8.25 ± 0.3
16,ATTATATATATATAAACACACAAATATTTTTATATA [CACACA_site5005],8.31 ± 0.32
17,TAATATTAATCCTAGTGTACATTAATTTATATGTAT [XGTACX_site3583],8.51 ± 0.45
18,ACCTATATAAGTTATACACACAAATATAGATATATA [CACACA_site7356],8.38 ± 0.32
19,TTTACAGAAAGTTACATACACACTAATATTTACACC [CACACA_site1009],8.69 ± 0.25
20,ATTTAAGATTTAATCACACACATATAGATTATAGAC [CACACA_site7383],8.61 ± 0.33
21,ATGAAGAAGTGTAAATGTACATTTTATGTAGAACAA [XGTACX_site6925],8.93 ± 0.48
22,TTATTTTTTTTTTATTGTACTAGGAAAATTTCGATA [XGTACX_site702],8.36 ± 0.4
23,TATAAGAGGATATATACACACAAAAATATGTACAGT [CACACA_site6885],8.73 ± 0.31

row,Sequence,gcPBM binding intensity (ln)
1,TTTATATGTATTAAGTGTACACATATAATGTGTTTG [XGTACX_site6629],8.48 ± 0.27
2,CTTCCTTAGGAATGTACACACATATATAATATGTTG [CACACA_site461],8.53 ± 0.4
3,TACAGACAGAAATGCACACACATATTTATATTTATA [CACACA_site7139],8.59 ± 0.26
4,AATAAAAAAGAATATACACACATAAATATAAAATAT [CACACA_site683],8.66 ± 0.46
5,AATTAAAAAGAAAAAAGTACATATTTTTTTAAAAAA [XGTACX_site7384],8.46 ± 0.3
6,AAATATATATTTCTTAGTACATATGTATTTTTTTTT [XGTACX_site938],8.54 ± 0.54
7,ATATATATATATATGTGTACTAATAAGGTTAAATAA [XGTACX_site1535],10.1 ± 0.41
8,TTTGACAAATTATTGTGTACACAATATTATTATATA [XGTACX_site8320],8.69 ± 0.21
9,ACAAAATGTAGATATTGTACATATTGTAGATATTGT [XGTACX_site7619],8.46 ± 0.42
10,ATATATATGCATAATACACACATCATATAATTAACC [CACACA_site1643],8.73 ± 0.35
11,TTCATACATAGAAAATGTACATATATATATATATAT [XGTACX_site1895],10.1 ± 0.45
12,AAAAAAAAAAACAATACATGCATAATATTAATAAAA [TGCATGCA_site913],8.76 ± 0.55
13,AAGATATGTACTAATACACACACATATATATATATA [CACACA_site8249],10.1 ± 0.45
14,TACAAAATATTTTACACACACATATAAATACAGATA [CACACA_site5447],8.72 ± 0.44
15,AAAGAAAAAAAATAATGTACTTATGTATTTCAGAAA [XGTACX_site3570],8.515 ± 0.007
16,ATTTTTTTTTTTAATACACACAATTTTGATGAAGCA [CACACA_site3157],8.26 ± 0.41
17,TATAATATTTGGTGCACACAAATTAACAACTGTTTA [CACACA_site3742],9.47 ± 0.47
18,ACATTACCATATAAAACACACAAACATACATACATA [CACACA_site7709],8.69 ± 0.58
19,TTTCATAAGAGAAAGACACACAAATATATATTTATT [CACACA_site827],8.38 ± 0.44
20,TATCCATGCATTTACACACACACAAAAAAAAATTCT [CACACA_site4100],8.73 ± 0.47
21,TTTTAAATAATTCGTAATTATAATTATGGAAAAAAG [CACACA_negctrl_site152],8.43 ± 0.48
22,TGTATGTTATGTATATGTACATATCTTTGTATTTAT [XGTACX_site6920],8.73 ± 0.23
23,AAATAAATTAAAATAAATTAAATTAAATTAGCATTA [GTGCAC_negctrl_site531],7.67 ± 0.36

row,Sequence,gcPBM binding intensity (ln)
1,TTTATTTTTTACCAAGTGCAATATATTATAATAATA,8.52 ± 0.23
2,ACCTTATTTATTATTGCATGTGACCATCAGATGGTA [TGCATGCA_site288],9.73 ± 0.52
3,TAATATTTATAATAGTGTACACAATTATAAACTGAA [XGTACX_site8426],8.52 ± 0.24
4,TATTTATAAGTTTACGCATGCATATAATTATTAATA [TGCATGCA_site311],9.38 ± 0.4
5,TTTTTTTTTTTTTTTGTGCACAATTATTTCAATTTT [GTGCAC_site9884],8.61 ± 0.49
6,TTTATTTTCATATGAACACACATATTTATATTATAA [CACACA_site7165],8.62 ± 0.44
7,TAATAAAAGAAAAAAAGTACAGACATATTGAATTTT [XGTACX_site5044],8.53 ± 0.47
8,TACAATCTAAGGAGCACACAAAAATGGATAAATATA [CACACA_site933],8.79 ± 0.51
9,ATACATACATATATATGTACTTATATTTTACACATT [XGTACX_site1688],8.79 ± 0.28
10,GCTTGAATAATCAATAGTACACACATATAAATATAT [XGTACX_site5964],8.51 ± 0.23
11,AGGTGTGAGACCACGTTCACAAAATAAAATACATAA [CACACA_negctrl_site326],8.63 ± 0.4
12,AACACAAGAACAGAACGTACACACACATATATATAT [XGTACX_site7347],9.76 ± 0.16
13,CAGGCACTAATAAACACACACATATAAATATAAATA [CACACA_site6320],8.62 ± 0.66
14,ACATCAAGCAGACACACACACACACCCACCCACCCA [CACACA_site8012],9.15 ± 0.32
15,TTTTTTTTTTTTTTTTGTACTCATACATACTATCAT [XGTACX_site3650],8.32 ± 0.71
16,AATTTCTACTATTGTATGCACTTTCATACATACATA [GTGCAC_site9924],8.82 ± 0.27
17,ATAATAAAAAATACAAGTACACATATTATATATATA [XGTACX_site5355],8.93 ± 0.092
18,TTTAAAACCTTACATACACACAAATATATATATATA [CACACA_site677],9.98 ± 0.3
19,AATGCTATCATTAATGCACACATTTAAAATTAATAT [CACACA_site3548],8.57 ± 0.2
20,CAAACAATTAAACAAACACACATATACAAGTATTTA [CACACA_site5177],8.41 ± 0.33
